Measured values from PubChem BioAssay AID463173 (ICCB-Longwood Screening Facility, Harvard Medical School, 2010).
The campaign covered roughly 52,000 compounds. About 4,300 (8.3%) were called active. Cut-off read from the data, not from the text of the source: active = survival mostly below about 52% (no sharp cut-off); inactive = mostly above about 56%. The list shows a part of the results.

Test system: DeltatarO mutant
Test: growth inhibition of S. aureus wild type versus tarO mutant, primary screen, teichoic acid synthesis inhibitors, RN4220, OD600 (AID 463173)
Conditions: OD600, 18 h, hits give low values, screened at 18.75 µg/mL (by protocol)

With `Cc1ccc2sc(NC(=O)/C=C/C(=O)O)nc2c1` as the compound, how does the survival read?
The survival was inactive: 102%.

Which survival does the source give for `Cc1ccc(NC(=O)Cn2c(=O)nc(-c3ccccc3)c3ccccc32)cc1` here?
The survival was inactive: 73%.

For `Cc1cccc(C(=O)n2nc(-c3cccnc3)nc2NCc2ccc(F)cc2)c1`, which survival is on record?
Its survival is inactive: 54%.

With `CCCCOc1ccc(CNC(=O)c2cnc3sc(N4CCCCCC4)nn3c2=O)cc1` as the compound, how does the survival read?
Its survival is inactive: 86%.

For `CCCCNC(=O)CCn1nc(-c2ccc(Cl)cc2)c2ccccc2c1=O`, which survival is on record?
Its survival is inactive: 53%.

With `CC(C)Cc1nnc(NC(=O)CCCN2C(=O)CCC2=O)s1` as the compound, how does the survival read?
The survival was inactive: 90%.

`CCN1CCN(c2nc3c(S(=O)(=O)c4ccc(C)cc4)nnn3c3ccsc23)CC1` was tested. Which survival did it give?
The survival was inactive: 65%.

With `CCN(CC)S(=O)(=O)c1ccc2c(c1)N(CC(=O)NCCc1ccccc1)C(=O)CO2` as the compound, how does the survival read?
Its survival is inactive: 76%.

How did the survival turn out when `CCC(Oc1ccccc1)C(=O)Nc1cc(-c2ccccc2F)nn1-c1ccccc1` (stereo not given) was run?
The survival was inactive: 122%.

Which survival does the source give for `CCC(CC)C(=O)Nc1nnc(C(C)(C)C)s1` here?
The survival was inactive: 95%.

For `CCOc1ccc2nc(N3CCCC(C(=O)Nc4ccc(CC)cc4)C3)sc2c1` (stereo not given), which survival is on record?
Its survival is inactive: 47%.

With `CCc1ccc2oc(-c3cccc(NC(=O)COc4ccccc4Cl)c3)nc2c1` as the compound, how does the survival read?
The survival was inactive: 57%.

How did the survival turn out when `COc1cccc(NC(=O)Nc2ccc3snnc3c2)c1` was run?
Its survival is inactive: 68%.

Which survival does the source give for `COc1ccc(-c2cc(C)no2)cc1S(=O)(=O)N1CCCC(C)C1` (stereo not given) here?
Its survival is inactive: 81%.

`Cn1c(=O)[nH]c(=O)c2c1nc(CN1CCN(c3ccccc3)CC1)n2Cc1c(F)cccc1Cl` was tested. Which survival did it give?
The survival was inactive: 83%.

How did the survival turn out when `Cc1cccc(NC(=O)c2ccc3[nH]c(C)cc(=O)c3c2)c1` was run?
The survival was inactive: 100%.

How did the survival turn out when `CC(C)(C)c1ccc(C(=O)Nc2ccc(NC(=O)c3ccc(Cl)c(Cl)c3)cc2)cc1` was run?
Its survival is inactive: 155%.

`CCC(=O)N1CCc2cc(S(=O)(=O)NC(Cc3ccccc3)C(=O)NCc3ccccc3OC)ccc21` (stereo not given) was tested. Which survival did it give?
The survival was inactive: 66%.

Which survival does the source give for `CSc1cccc(Nc2cc(C(=O)NC3CCCCC3)c3ccccc3n2)c1` here?
Its survival is inactive: 111%.

For `COc1ccc(C)cc1NC(=O)Cn1c(=O)oc2cc(S(=O)(=O)N3CCCCCC3)ccc21`, which survival is on record?
Its survival is inactive: 71%.

How did the survival turn out when `CCc1ccc2occ(CC(=O)Nc3c(C(=O)c4ccc(F)cc4)oc4ccccc34)c2c1` was run?
Its survival is inactive: 67%.

How did the survival turn out when `CCCCCCSc1nc(N)c2c3c(sc2n1)CCCC3C` (stereo not given) was run?
Its survival is active: -7%.

`CC(C)(C)C1CCc2c(sc(NC(=O)c3cc(-c4ccc(F)cc4)on3)c2C#N)C1` (stereo not given) was tested. Which survival did it give?
Its survival is inactive: 131%.

For `O=C(NC1CCCC1)C(c1cccnc1)N(CCc1ccccc1)C(=O)c1ccco1` (stereo not given), which survival is on record?
The survival was inactive: 80%.

Which survival does the source give for `CCC(C(=O)NCCc1ccc(OC)c(OC)c1)n1nc(C)c2sc3ccccc3c2c1=O` (stereo not given) here?
Its survival is inactive: 70%.

Which survival does the source give for `Cc1cc(C)cc(-n2ccn3cnnc3c2=O)c1` here?
The survival was inactive: 87%.

`Cc1ccc(OCC(=O)OCc2cc(=O)n3nc(C4CC4)sc3n2)cc1C` was tested. Which survival did it give?
Its survival is inactive: 71%.

Which survival does the source give for `CCCN(c1ccccc1F)S(=O)(=O)c1cc(-c2cc(C)no2)ccc1C` here?
The survival was inactive: 94%.

For `CCOCCCNC(=O)Cn1ncc2c([nH]c3ccc(C)cc32)c1=O`, which survival is on record?
The survival was inactive: 83%.

For `COCCN(Cc1ccc(C)c(Br)c1)S(=O)(=O)c1ccc2[nH]c(=O)ccc2c1`, which survival is on record?
The survival was active: 20%.

Which survival does the source give for `CCC(C)(C)NC(=O)Cn1c(-c2ccc(C)cc2)noc1=O` here?
The survival was inactive: 86%.

Which survival does the source give for `CC1CCCCC1NC(=O)Cn1nnc(-c2ccc(N(C)C)cc2)n1` (stereo not given) here?
Its survival is inactive: 106%.

Which survival does the source give for `CCOC(=O)c1ccc(NC(=O)c2cc(=O)c3ccc(C)c(C)c3o2)cc1` here?
Its survival is active: 45%.

For `CC(=O)N1CCc2cc(Br)cc(S(=O)(=O)CCC(=O)N3CCN(c4cccc(C)c4C)CC3)c21`, which survival is on record?
Its survival is active: 45%.

Which survival does the source give for `Cn1nc(-c2ccccc2)c(-c2ccccc2)c(C(=O)Nc2ccccc2C(N)=O)c1=O` here?
Its survival is inactive: 107%.

Which survival does the source give for `CCCN(CCC)c1cc(C)nc2nc(-c3ccc(C(C)(C)C)cc3)nn12` here?
Its survival is inactive: 103%.

`Cc1cc(C)cc(N2C(=O)CSC23C(=O)N(CC(N)=O)c2ccccc23)c1` (stereo not given) was tested. Which survival did it give?
Its survival is inactive: 98%.

Which survival does the source give for `CCOCCCNC(=O)Cn1ncc2c([nH]c3ccccc32)c1=O` here?
Its survival is inactive: 95%.

`Clc1ccccc1CNCCCSc1nnnn1-c1ccccc1` was tested. Which survival did it give?
The survival was inactive: 57%.

`O=C1CC2(Oc3ccccc3O2)C(=O)NN1` was tested. Which survival did it give?
Its survival is inactive: 101%.

How did the survival turn out when `Cc1noc(C)c1S(=O)(=O)N(CC(=O)Nc1ccc(C(F)(F)F)cc1)c1ccc(C(C)C)cc1` was run?
Its survival is inactive: 55%.

For `CCc1ccccc1NC(=O)N1CCN(Cc2nc3ccc(C)cc3o2)CC1`, which survival is on record?
Its survival is inactive: 84%.

How did the survival turn out when `Cn1c(SCC(=O)N2CCCc3ccccc32)nnc1-c1ccccc1N` was run?
The survival was inactive: 92%.

How did the survival turn out when `Cc1ccc(-n2ncc3c(Nc4ccc(Oc5ccccc5)cc4)ncnc32)cc1` was run?
The survival was inactive: 68%.

How did the survival turn out when `CC(C)Cc1nn2c(=O)cc(COC(=O)c3cccc(NC(=O)c4ccccc4)c3)nc2s1` was run?
The survival was inactive: 75%.
